Data reported in paper PMC9911399, “Two distinct binding modes provide the RNA-binding protein RbFox with extraordinary sequence specificity”.
Changes are numbered by the printed parent chain; changes in the protein carry UniProt numbers. Some of the results follow.

T1: RBFOX1 RRM (Homo sapiens, UniProt Q9NWB1 109-208)
T1 sequence: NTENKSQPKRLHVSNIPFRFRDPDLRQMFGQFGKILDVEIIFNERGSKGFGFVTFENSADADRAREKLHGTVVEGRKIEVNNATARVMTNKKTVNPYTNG

B1: GUGAUGA (DNA:RNA)
RNA: GGGAGACCGGAAUUCAGAUUGUCCGUGAUGAUUAAAUCCCGUCGUAGCCACCA
DNA 1: CAATCTGAATTCCGGTCTCCC
DNA 2: TGGTGGCTACGACGGGATT
B2: GGACAAC (DNA:RNA)
RNA: B1 RNA with U26G, G27A, A28C, U29A, G30A, A31C
DNA 1: CAATCTGAATTCCGGTCTCCC
DNA 2: TGGTGGCTACGACGGGATT
B3: CUACCAG (DNA:RNA)
RNA: B1 RNA with G25C, G27A, A28C, U29C, G30A, A31G
DNA 1: CAATCTGAATTCCGGTCTCCC
DNA 2: TGGTGGCTACGACGGGATT
B4: UUUAAGC (DNA:RNA)
RNA: B1 RNA with G25U, G27U, U29A, A31C
DNA 1: CAATCTGAATTCCGGTCTCCC
DNA 2: TGGTGGCTACGACGGGATT
B5: CUGUGGC (DNA:RNA)
RNA: B1 RNA with G25C, A28U, U29G, A31C
DNA 1: CAATCTGAATTCCGGTCTCCC
DNA 2: TGGTGGCTACGACGGGATT
B6: CGUUAAU (DNA:RNA)
RNA: GGGAGACCGGAAUUCAGAUUGUCCCGUUAAUUUAAAUCCCGUCGUAGCCACCA
DNA 1: CAATCTGAATTCCGGTCTCCC
DNA 2: TGGTGGCTACGACGGGATT
B7: GUGAUGG (DNA:RNA)
RNA: B1 RNA with A31G
DNA 1: CAATCTGAATTCCGGTCTCCC
DNA 2: TGGTGGCTACGACGGGATT
B8: CUGAUGC (DNA:RNA)
RNA: B1 RNA with G25C, A31C
DNA 1: CAATCTGAATTCCGGTCTCCC
DNA 2: TGGTGGCTACGACGGGATT
B9: CCGUUAA (DNA:RNA)
RNA: B6 RNA with G26C, U27G, A29U, U31A
DNA 1: CAATCTGAATTCCGGTCTCCC
DNA 2: TGGTGGCTACGACGGGATT
B10: ACGAAGG (DNA:RNA)
RNA: B1 RNA with G25A, U26C, U29A, A31G
DNA 1: CAATCTGAATTCCGGTCTCCC
DNA 2: TGGTGGCTACGACGGGATT
B11: AUCCGUA (DNA:RNA)
RNA: B1 RNA with G25A, G27C, A28C, U29G, G30U
DNA 1: CAATCTGAATTCCGGTCTCCC
DNA 2: TGGTGGCTACGACGGGATT
B12: CAAUAGC (DNA:RNA)
RNA: B6 RNA with G26A, U27A, A30G, U31C
DNA 1: CAATCTGAATTCCGGTCTCCC
DNA 2: TGGTGGCTACGACGGGATT
B13: CCCCUGG (DNA:RNA)
RNA: B1 RNA with G25C, U26C, G27C, A28C, A31G
DNA 1: CAATCTGAATTCCGGTCTCCC
DNA 2: TGGTGGCTACGACGGGATT
B14: AUGCGGA (DNA:RNA)
RNA: B1 RNA with G25A, A28C, U29G
DNA 1: CAATCTGAATTCCGGTCTCCC
DNA 2: TGGTGGCTACGACGGGATT
B15: CCACCGG (DNA:RNA)
RNA: B6 RNA with G26C, U27A, U28C, A29C, A30G, U31G
DNA 1: CAATCTGAATTCCGGTCTCCC
DNA 2: TGGTGGCTACGACGGGATT
B16: CGAAUAG (DNA:RNA)
RNA: B6 RNA with U27A, U28A, A29U, U31G
DNA 1: CAATCTGAATTCCGGTCTCCC
DNA 2: TGGTGGCTACGACGGGATT
B17: GAUCAAA (DNA:RNA)
RNA: B6 RNA with C25G, G26A, U28C, U31A
DNA 1: CAATCTGAATTCCGGTCTCCC
DNA 2: TGGTGGCTACGACGGGATT
B18: GGUUUUA (DNA:RNA)
RNA: B6 RNA with C25G, A29U, A30U, U31A
DNA 1: CAATCTGAATTCCGGTCTCCC
DNA 2: TGGTGGCTACGACGGGATT
B19: AUGUCUC (DNA:RNA)
RNA: B1 RNA with G25A, A28U, U29C, G30U, A31C
DNA 1: CAATCTGAATTCCGGTCTCCC
DNA 2: TGGTGGCTACGACGGGATT
B20: CAGGACU (DNA:RNA)
RNA: B6 RNA with G26A, U27G, U28G, A30C
DNA 1: CAATCTGAATTCCGGTCTCCC
DNA 2: TGGTGGCTACGACGGGATT
B21: GAUAGUU (DNA:RNA)
RNA: B6 RNA with C25G, G26A, U28A, A29G, A30U
DNA 1: CAATCTGAATTCCGGTCTCCC
DNA 2: TGGTGGCTACGACGGGATT
B22: GCUUACU (DNA:RNA)
RNA: B6 RNA with C25G, G26C, A30C
DNA 1: CAATCTGAATTCCGGTCTCCC
DNA 2: TGGTGGCTACGACGGGATT
B23: CAUCCAC (DNA:RNA)
RNA: B6 RNA with G26A, U28C, A29C, U31C
DNA 1: CAATCTGAATTCCGGTCTCCC
DNA 2: TGGTGGCTACGACGGGATT
B24: AAAGCGU (DNA:RNA)
RNA: B6 RNA with C25A, G26A, U27A, U28G, A29C, A30G
DNA 1: CAATCTGAATTCCGGTCTCCC
DNA 2: TGGTGGCTACGACGGGATT
B25: AGUGAGA (DNA:RNA)
RNA: B6 RNA with C25A, U28G, A30G, U31A
DNA 1: CAATCTGAATTCCGGTCTCCC
DNA 2: TGGTGGCTACGACGGGATT
B26: UUCUAGG (DNA:RNA)
RNA: B6 RNA with C25U, G26U, U27C, A30G, U31G
DNA 1: CAATCTGAATTCCGGTCTCCC
DNA 2: TGGTGGCTACGACGGGATT
B27: CUGCUGU (DNA:RNA)
RNA: B1 RNA with G25C, A28C, A31U
DNA 1: CAATCTGAATTCCGGTCTCCC
DNA 2: TGGTGGCTACGACGGGATT
B28: CAAACAA (DNA:RNA)
RNA: B6 RNA with G26A, U27A, U28A, A29C, U31A
DNA 1: CAATCTGAATTCCGGTCTCCC
DNA 2: TGGTGGCTACGACGGGATT
B29: AUCACUA (DNA:RNA)
RNA: B1 RNA with G25A, G27C, U29C, G30U
DNA 1: CAATCTGAATTCCGGTCTCCC
DNA 2: TGGTGGCTACGACGGGATT
B30: CCGGACC (DNA:RNA)
RNA: B6 RNA with G26C, U27G, U28G, A30C, U31C
DNA 1: CAATCTGAATTCCGGTCTCCC
DNA 2: TGGTGGCTACGACGGGATT
B31: ACCGAUC (DNA:RNA)
RNA: B6 RNA with C25A, G26C, U27C, U28G, A30U, U31C
DNA 1: CAATCTGAATTCCGGTCTCCC
DNA 2: TGGTGGCTACGACGGGATT

The binders below were run against T1, RBFOX1 RRM (assay: EMSA; HiTS-Eq, 1 nM pool, 10 min; buffer printed only for the single-RNA assays: 10 mM Tris pH 7.5, 150 mM NaCl, 3.4 mM EDTA, 0.001% NP-40, 30 C). Details: tags: His6 N-terminal (pET28a); label: 5' 32P.
Method in brief: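 Purified RbFox RRM (wild type or mutant) was equilibrated for 10 min in 50 µL with 1 nM of a 5′-radiolabelled pool of RNA with 7 randomized nucleotides, its flanks annealed to DNA oligonucleotides, across increasing protein concentrations. Free RNA was separated by 8% native PAGE, excised, reverse-transcribed, PCR-barcoded and sequenced on an Illumina HiSeq 2500. Relative association constants came from read-count changes of each variant against the control reaction, normalised to the cognate motif.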
B1 was tested, and the binding signal was 0.016 KA relative to UGCAUGU. For B2, the binding signal was 0.0157 KA relative to UGCAUGU. B3 was tested, and the binding signal was 0.00668 KA relative to UGCAUGU. For B4, the binding signal was 0.0109 KA relative to UGCAUGU. In the case of B5, the binding signal is reported as 0.0106 KA relative to UGCAUGU. For B6, the binding signal was 0.00397 KA relative to UGCAUGU. B7 was tested, and the binding signal was 0.0149 KA relative to UGCAUGU. For B8, the binding signal was 0.012 KA relative to UGCAUGU. With B9 the binding signal was 0.00125 KA relative to UGCAUGU. In the case of B10, the binding signal is reported as 0.0119 KA relative to UGCAUGU. B11 was tested, and the binding signal was 0.00367 KA relative to UGCAUGU. B12 was tested, and the binding signal was 0.00204 KA relative to UGCAUGU. For B13, the binding signal was 0.0109 KA relative to UGCAUGU. In the case of B14, the binding signal is reported as 0.0106 KA relative to UGCAUGU. In the case of B15, the binding signal is reported as 0.000243 KA relative to UGCAUGU. For B16, the binding signal was 0.00672 KA relative to UGCAUGU. In the case of B17, the binding signal is reported as 0.00435 KA relative to UGCAUGU. With B18 the binding signal was 0.00817 KA relative to UGCAUGU. With B19 the binding signal was 0.0135 KA relative to UGCAUGU. With B20 the binding signal was 0.00514 KA relative to UGCAUGU. With B21 the binding signal was 0.0125 KA relative to UGCAUGU. In the case of B22, the binding signal is reported as 0.00884 KA relative to UGCAUGU. B23 was tested, and the binding signal was 0.00104 KA relative to UGCAUGU. With B24 the binding signal was 0.00568 KA relative to UGCAUGU. B25 was tested, and the binding signal was 0.00921 KA relative to UGCAUGU. For B26, the binding signal was 0.00585 KA relative to UGCAUGU. B27 was tested, and the binding signal was 0.0232 KA relative to UGCAUGU. In the case of B28, the binding signal is reported as 0.00107 KA relative to UGCAUGU. With B29 the binding signal was 0.00157 KA relative to UGCAUGU. For B30, the binding signal was 0.0158 KA relative to UGCAUGU. With B31 the binding signal was 0.00288 KA relative to UGCAUGU.
